This is one part of the list.
Molecular target: T1, MBP-FoxP1dN (Mus musculus, UniProt P58462 326-579)
T1 sequence: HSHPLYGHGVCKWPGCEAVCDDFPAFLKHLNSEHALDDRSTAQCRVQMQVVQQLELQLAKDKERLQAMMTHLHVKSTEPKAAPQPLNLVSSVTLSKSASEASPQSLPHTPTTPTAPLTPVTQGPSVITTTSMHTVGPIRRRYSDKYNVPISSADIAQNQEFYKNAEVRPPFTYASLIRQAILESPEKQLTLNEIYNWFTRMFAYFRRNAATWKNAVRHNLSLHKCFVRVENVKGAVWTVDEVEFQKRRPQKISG
Assay: PD-seq (MBP pull-down with sequencing); 20 mM Tris-HCl pH 7.5, 100 mM NaCl, 1.5 mM MgCl2, 0.4 uM protein, 0.1 uM dsDNA library, 30 min, room temperature, amylose pull-down; high values mean tight binding
Conditions: protein: recombinant; tags: His6-MBP; chain copies: 2; dsDNA, one strand shown
Summary of the method: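 The N-terminus-lacking fragment of mouse FoxP3 or FoxP1 carried a His6-MBP tag and was expressed in E. coli. At 0.4 µM it was incubated with 0.1 µM Klenow-filled degenerate double-stranded DNA library for 30 min at room temperature in Tris pH 7.5 buffer with NaCl and MgCl2, and complexes were caught on amylose resin, washed three times, released with proteinase K, PCR-barcoded and Illumina-sequenced. Binding is reads-per-million enrichment of pull-down over input with replicates pooled.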

In order of rising binding signal:
1. GATGATTGTTCTCCCAGCTGATGAATTCCAATCGTCGAGTAAACAAATTTTCCTAATCTTTCTGTTCAAGCGCCATCTAC  0.771 RPM ratio (pull-down/input)
2. GATGATTGTTCTCCCAGCTGATGAATTCTTGCGGTCGAGTAAACAAATTTTCCTAATCTTTCTGTTCAAGCGCCATCTAC  0.786 RPM ratio (pull-down/input)
3. GATGATTGTTCTCCCAGCTGATGAATTCAGCAGATCGAGTAAACAAATTTTCCTAATCTTTCTGTTCAAGCGCCATCTAC  0.815 RPM ratio (pull-down/input)
4. GATGATTGTTCTCCCAGCTGATGAATTCATTCTGTCGAGTAAACAAATTTTCCTAATCTTTCTGTTCAAGCGCCATCTAC  0.822 RPM ratio (pull-down/input)
5. GATGATTGTTCTCCCAGCTGATGAATTAGCGAACTCGAGTAAACAAATTTTCCTAATCTTTCTGTTCAAGCGCCATCTAC  0.828 RPM ratio (pull-down/input)
6. GATGATTGTTCTCCCAGCTGATGAATTTCCCATGTCGAGTAAACAAATTTTCCTAATCTTTCTGTTCAAGCGCCATCTAC  0.83 RPM ratio (pull-down/input)
7. GATGATTGTTCTCCCAGCTGATGAATTTGCCCTCTCGAGTAAACAAATTTTCCTAATCTTTCTGTTCAAGCGCCATCTAC  0.831 RPM ratio (pull-down/input)
8. GATGATTGTTCTCCCAGCTGATGAATTAAGGGGCTCGAGTAAACAAATTTTCCTAATCTTTCTGTTCAAGCGCCATCTAC  0.833 RPM ratio (pull-down/input)
9. GATGATTGTTCTCCCAGCTGATGAATTTCCTAGTTCGAGTAAACAAATTTTCCTAATCTTTCTGTTCAAGCGCCATCTAC  0.842 RPM ratio (pull-down/input)
10. GATGATTGTTCTCCCAGCTGATGAATTAGGCAGGTCGAGTAAACAAATTTTCCTAATCTTTCTGTTCAAGCGCCATCTAC  0.851 RPM ratio (pull-down/input)
11. GATGATTGTTCTCCCAGCTGATGAATTGAACCGTTCGAGTAAACAAATTTTCCTAATCTTTCTGTTCAAGCGCCATCTAC  0.853 RPM ratio (pull-down/input)
12. GATGATTGTTCTCCCAGCTGATGAATTTCTATGGTCGAGTAAACAAATTTTCCTAATCTTTCTGTTCAAGCGCCATCTAC  0.86 RPM ratio (pull-down/input)
13. GATGATTGTTCTCCCAGCTGATGAATTTTGGTCTTCGAGTAAACAAATTTTCCTAATCTTTCTGTTCAAGCGCCATCTAC  0.862 RPM ratio (pull-down/input)
14. GATGATTGTTCTCCCAGCTGATGAATTCCAGGTATCGAGTAAACAAATTTTCCTAATCTTTCTGTTCAAGCGCCATCTAC  0.862 RPM ratio (pull-down/input)
15. GATGATTGTTCTCCCAGCTGATGAATTCTGATACTCGAGTAAACAAATTTTCCTAATCTTTCTGTTCAAGCGCCATCTAC  0.872 RPM ratio (pull-down/input)
16. GATGATTGTTCTCCCAGCTGATGAATTTAAGTGCTCGAGTAAACAAATTTTCCTAATCTTTCTGTTCAAGCGCCATCTAC  0.874 RPM ratio (pull-down/input)
17. GATGATTGTTCTCCCAGCTGATGAATTCAAATTCTCGAGTAAACAAATTTTCCTAATCTTTCTGTTCAAGCGCCATCTAC  0.874 RPM ratio (pull-down/input)
18. GATGATTGTTCTCCCAGCTGATGAATTCTAAATTTCGAGTAAACAAATTTTCCTAATCTTTCTGTTCAAGCGCCATCTAC  0.877 RPM ratio (pull-down/input)
19. GATGATTGTTCTCCCAGCTGATGAATTCCCCAACTCGAGTAAACAAATTTTCCTAATCTTTCTGTTCAAGCGCCATCTAC  0.882 RPM ratio (pull-down/input)
20. GATGATTGTTCTCCCAGCTGATGAATTGAGGCTGTCGAGTAAACAAATTTTCCTAATCTTTCTGTTCAAGCGCCATCTAC  0.891 RPM ratio (pull-down/input)
21. GATGATTGTTCTCCCAGCTGATGAATTGGTCAAGTCGAGTAAACAAATTTTCCTAATCTTTCTGTTCAAGCGCCATCTAC  0.891 RPM ratio (pull-down/input)
22. GATGATTGTTCTCCCAGCTGATGAATTCTTGCCGTCGAGTAAACAAATTTTCCTAATCTTTCTGTTCAAGCGCCATCTAC  0.893 RPM ratio (pull-down/input)
23. GATGATTGTTCTCCCAGCTGATGAATTAGGAGATTCGAGTAAACAAATTTTCCTAATCTTTCTGTTCAAGCGCCATCTAC  0.894 RPM ratio (pull-down/input)
24. GATGATTGTTCTCCCAGCTGATGAATTCGGTGCCTCGAGTAAACAAATTTTCCTAATCTTTCTGTTCAAGCGCCATCTAC  0.898 RPM ratio (pull-down/input)
25. GATGATTGTTCTCCCAGCTGATGAATTACGGCCATCGAGTAAACAAATTTTCCTAATCTTTCTGTTCAAGCGCCATCTAC  0.899 RPM ratio (pull-down/input)
26. GATGATTGTTCTCCCAGCTGATGAATTGACCCACTCGAGTAAACAAATTTTCCTAATCTTTCTGTTCAAGCGCCATCTAC  0.9 RPM ratio (pull-down/input)
27. GATGATTGTTCTCCCAGCTGATGAATTCACACACTCGAGTAAACAAATTTTCCTAATCTTTCTGTTCAAGCGCCATCTAC  0.9 RPM ratio (pull-down/input)
28. GATGATTGTTCTCCCAGCTGATGAATTTGACTATTCGAGTAAACAAATTTTCCTAATCTTTCTGTTCAAGCGCCATCTAC  0.903 RPM ratio (pull-down/input)
29. GATGATTGTTCTCCCAGCTGATGAATTCACTGCTTCGAGTAAACAAATTTTCCTAATCTTTCTGTTCAAGCGCCATCTAC  0.91 RPM ratio (pull-down/input)
30. GATGATTGTTCTCCCAGCTGATGAATTCGCGGCATCGAGTAAACAAATTTTCCTAATCTTTCTGTTCAAGCGCCATCTAC  0.924 RPM ratio (pull-down/input)
31. GATGATTGTTCTCCCAGCTGATGAATTCCCGACATCGAGTAAACAAATTTTCCTAATCTTTCTGTTCAAGCGCCATCTAC  0.928 RPM ratio (pull-down/input)
32. GATGATTGTTCTCCCAGCTGATGAATTATCGATCTCGAGTAAACAAATTTTCCTAATCTTTCTGTTCAAGCGCCATCTAC  0.931 RPM ratio (pull-down/input)
33. GATGATTGTTCTCCCAGCTGATGAATTATATAGGTCGAGTAAACAAATTTTCCTAATCTTTCTGTTCAAGCGCCATCTAC  0.935 RPM ratio (pull-down/input)
34. GATGATTGTTCTCCCAGCTGATGAATTTTCGTGATCGAGTAAACAAATTTTCCTAATCTTTCTGTTCAAGCGCCATCTAC  0.936 RPM ratio (pull-down/input)
35. GATGATTGTTCTCCCAGCTGATGAATTAGGGTTTTCGAGTAAACAAATTTTCCTAATCTTTCTGTTCAAGCGCCATCTAC  0.936 RPM ratio (pull-down/input)
36. GATGATTGTTCTCCCAGCTGATGAATTATCGACGTCGAGTAAACAAATTTTCCTAATCTTTCTGTTCAAGCGCCATCTAC  0.937 RPM ratio (pull-down/input)
37. GATGATTGTTCTCCCAGCTGATGAATTCTTACTGTCGAGTAAACAAATTTTCCTAATCTTTCTGTTCAAGCGCCATCTAC  0.95 RPM ratio (pull-down/input)
38. GATGATTGTTCTCCCAGCTGATGAATTCAGCGCGTCGAGTAAACAAATTTTCCTAATCTTTCTGTTCAAGCGCCATCTAC  0.955 RPM ratio (pull-down/input)
39. GATGATTGTTCTCCCAGCTGATGAATTTGCCATATCGAGTAAACAAATTTTCCTAATCTTTCTGTTCAAGCGCCATCTAC  0.966 RPM ratio (pull-down/input)
40. GATGATTGTTCTCCCAGCTGATGAATTAATTAGTTCGAGTAAACAAATTTTCCTAATCTTTCTGTTCAAGCGCCATCTAC  0.983 RPM ratio (pull-down/input)
41. GATGATTGTTCTCCCAGCTGATGAATTGTCCCCTTCGAGTAAACAAATTTTCCTAATCTTTCTGTTCAAGCGCCATCTAC  1.01 RPM ratio (pull-down/input)
42. GATGATTGTTCTCCCAGCTGATGAATTACGAGTTTCGAGTAAACAAATTTTCCTAATCTTTCTGTTCAAGCGCCATCTAC  1.01 RPM ratio (pull-down/input)
43. GATGATTGTTCTCCCAGCTGATGAATTAATAAGTTCGAGTAAACAAATTTTCCTAATCTTTCTGTTCAAGCGCCATCTAC  1.01 RPM ratio (pull-down/input)
44. GATGATTGTTCTCCCAGCTGATGAATTAGATTGTTCGAGTAAACAAATTTTCCTAATCTTTCTGTTCAAGCGCCATCTAC  1.02 RPM ratio (pull-down/input)
45. GATGATTGTTCTCCCAGCTGATGAATTTGCGGATTCGAGTAAACAAATTTTCCTAATCTTTCTGTTCAAGCGCCATCTAC  1.02 RPM ratio (pull-down/input)
46. GATGATTGTTCTCCCAGCTGATGAATTGCGTCAGTCGAGTAAACAAATTTTCCTAATCTTTCTGTTCAAGCGCCATCTAC  1.02 RPM ratio (pull-down/input)
47. GATGATTGTTCTCCCAGCTGATGAATTTAGGATATCGAGTAAACAAATTTTCCTAATCTTTCTGTTCAAGCGCCATCTAC  1.02 RPM ratio (pull-down/input)
48. GATGATTGTTCTCCCAGCTGATGAATTCAGTGTTTCGAGTAAACAAATTTTCCTAATCTTTCTGTTCAAGCGCCATCTAC  1.03 RPM ratio (pull-down/input)
49. GATGATTGTTCTCCCAGCTGATGAATTACTCGCCTCGAGTAAACAAATTTTCCTAATCTTTCTGTTCAAGCGCCATCTAC  1.04 RPM ratio (pull-down/input)
50. GATGATTGTTCTCCCAGCTGATGAATTGTGACGGTCGAGTAAACAAATTTTCCTAATCTTTCTGTTCAAGCGCCATCTAC  1.05 RPM ratio (pull-down/input)
51. GATGATTGTTCTCCCAGCTGATGAATTGGTTATGTCGAGTAAACAAATTTTCCTAATCTTTCTGTTCAAGCGCCATCTAC  1.06 RPM ratio (pull-down/input)
52. GATGATTGTTCTCCCAGCTGATGAATTATAAATGTCGAGTAAACAAATTTTCCTAATCTTTCTGTTCAAGCGCCATCTAC  1.11 RPM ratio (pull-down/input)
53. GATGATTGTTCTCCCAGCTGATGAATTAAATAGTTCGAGTAAACAAATTTTCCTAATCTTTCTGTTCAAGCGCCATCTAC  1.11 RPM ratio (pull-down/input)
54. GATGATTGTTCTCCCAGCTGATGAATTATCGTATTCGAGTAAACAAATTTTCCTAATCTTTCTGTTCAAGCGCCATCTAC  1.12 RPM ratio (pull-down/input)
55. GATGATTGTTCTCCCAGCTGATGAATTCTTCGCATCGAGTAAACAAATTTTCCTAATCTTTCTGTTCAAGCGCCATCTAC  1.12 RPM ratio (pull-down/input)
56. GATGATTGTTCTCCCAGCTGATGAATTATCTTAATCGAGTAAACAAATTTTCCTAATCTTTCTGTTCAAGCGCCATCTAC  1.13 RPM ratio (pull-down/input)
57. GATGATTGTTCTCCCAGCTGATGAATTGCATAACTCGAGTAAACAAATTTTCCTAATCTTTCTGTTCAAGCGCCATCTAC  1.17 RPM ratio (pull-down/input)
58. GATGATTGTTCTCCCAGCTGATGAATTGTTCTGTTCGAGTAAACAAATTTTCCTAATCTTTCTGTTCAAGCGCCATCTAC  1.18 RPM ratio (pull-down/input)
59. GATGATTGTTCTCCCAGCTGATGAATTGCAAGTTTCGAGTAAACAAATTTTCCTAATCTTTCTGTTCAAGCGCCATCTAC  1.22 RPM ratio (pull-down/input)
60. GATGATTGTTCTCCCAGCTGATGAATTGTGTTCGTCGAGTAAACAAATTTTCCTAATCTTTCTGTTCAAGCGCCATCTAC  1.22 RPM ratio (pull-down/input)
61. GATGATTGTTCTCCCAGCTGATGAATTGATTGCATCGAGTAAACAAATTTTCCTAATCTTTCTGTTCAAGCGCCATCTAC  1.53 RPM ratio (pull-down/input)
62. GATGATTGTTCTCCCAGCTGATGAATTAGTAAACTCGAGTAAACAAATTTTCCTAATCTTTCTGTTCAAGCGCCATCTAC  1.63 RPM ratio (pull-down/input)
63. GATGATTGTTCTCCCAGCTGATGAATTCTTGTTATCGAGTAAACAAATTTTCCTAATCTTTCTGTTCAAGCGCCATCTAC  2.09 RPM ratio (pull-down/input)
